# Data from PubChem BioAssay (NCI).
# Values joined by “and” are separate entries in the source; they are usually repeats but may differ in a detail not shown here. Equal values may be shown once.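 1) Cells in 96-well plates. 2) Compound, 48 h, 5 concentrations. 3) Linear interpolation between surrounding doses. 4) Unreached endpoint = highest concentration. Abbreviation: GI50, concentration required for 50% inhibition of growth. TGI: concentration producing complete growth inhibition.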
# Test system: NCI-H322M lung
# Assay: NCI tumour cell line growth inhibition, 48 h
SMILES,TGI,GI50
CCCCCCCCCCCCCCCCNc1cccc2ccccc12,> 100 µM,
O=C(Nc1cccc(Cl)c1)C(=O)C(C(=O)c1ccc2ccccc2c1)C1OC(=O)c2ccccc21 (stereo unspecified),59.6 µM,
COC(C)(C)C1(O)CC[C@@H](C)CC1=O (stereo partly specified),> 100 µM,
COc1ccc(N2C(=O)CC(=O)N(NC(=O)C(C)Oc3ccccc3C)C2=S)cc1 (stereo unspecified),> 100 µM,
NC(N)=NCCCC(=O)O,> 100 µM,
O=C1NC2c3c(I)sc(I)c3C(O)C2O1 (stereo unspecified),> 100 µM,
Cc1ccc(C)c(NC(=O)c2cccc([N+](=O)[O-])c2O)c1,74.3 µM,
O=P(O)(O)C(N=C(Nc1ccccc1)Nc1ccccc1)P(=O)(O)O,> 100 µM,
NC(=O)c1c(NC(=O)c2ccccc2)sc2c1CCC(=O)C2,> 100 µM,3.64 µM
O=C(/C=C/c1ccccc1)Oc1ccc(C(=O)/C=C/c2ccccc2)cc1,26.1 µM,
O=C(O)C(Cl)(Cl)Cl,> 100 µM,
CCCC(=O)Nc1cn(COC)c(C(=O)N2C[C@@H]3C[C@]34C2=CC(=O)c2[nH]cc(C)c24)n1,33.2 µM and > 100 µM,19 µM
O=C1OCC/C1=N/O,> 100 µM,
COc1c(O)c2c(=O)cc3c4c5c(cc(=O)c6c(O)c(OC)c(CC(C)O)c(c(c1CC(C)O)c24)c65)OCO3 (stereo unspecified),6.36 µM,
CC(=O)ON1CCCC(P(=O)(OCCSC(=O)C(C)(C)C)OCCSC(=O)C(C)(C)C)C1=O (stereo unspecified),16.2 µM,2.06 µM
O=c1c(F)cn(Cc2ccc(C34CC5CC(CC(C5)C3)C4)c(O)c2)c(=O)n1Cc1ccc(C23CC4CC(CC(C4)C2)C3)c(O)c1,30.6 µM,15.7 µM
COc1ccc(C(=O)Nc2ccc(O)c(=O)cc2)cc1,> 100 µM,
CN1CCN(c2ccc(Nc3cc(-c4cccc(-n5ccc6cc(C7CC7)cc(F)c6c5=O)c4CO)cn(C)c3=O)nc2)CC1,21.8 µM,5.59 µM
CSc1nc(SC)c2c(C#N)[nH]nc2n1,> 100 µM,
CCOc1cc(/C=C2/C(C)=NN(c3cccc(Cl)c3)/C2=N/c2nc3ccccc3s2)ccc1O,> 100 µM,
COc1cc(O)c2c(c1)C(=O)c1cc3c(c(O)c1C2=O)C(OC1OC(C)C(OC)C(O)C1OC)C(OC)C(C)(O)C3=O (stereo unspecified),> 100 µM,
CCOC(=O)c1ccc(/C(C)=N/NC(N)=S)cc1,> 100 µM,
CCCNc1ncnc2c1ncn2C,> 100 µM,
CC(NC(=O)Cc1ccccc1)NC(=O)C(C)C(=O)Nc1ccccc1 (stereo unspecified),> 100 µM,
CC(c1ccccc1)N1CCN(C(C)c2ccccc2)CC1 (stereo unspecified),> 100 µM,
CN1CCC(=O)/C(=C/c2ccccc2)C1,31 µM,

SMILES,TGI,GI50
O=C1CCC(c2ccccc2)=NN1c1nsc2ccccc12,> 100 µM,
O=C1CCC2(c3ccc(Cl)cc3)Nc3cc(Cl)ccc3N12 (stereo unspecified),27.9 µM,
COc1ccc(OCC(=O)O)c2c1CCCC2=O,> 100 µM,
COc1ccc(-c2nc(SCC(=O)NNC(=S)Nc3ccccc3)[nH]c2-c2ccc(OC)cc2)cc1,92.6 µM,
CCN1CN(c2ccccc2)C2(CCN(CC3COc4ccccc4O3)CC2)C1=O (stereo unspecified),> 100 µM,
O=C(c1ccco1)c1c(C(F)(F)F)nc2ccc(Cl)cc2[n+]1[O-],> 100 µM,> 100 µM
Cc1nc(C)c(C(=O)NNC(=O)C[N+](C)(C)C)cc1C(=O)NNC(=O)C[N+](C)(C)C,> 100 µM,
c1ccc2c(OCCSCCCCCCCCCCSCCOc3cccc4ccccc34)cccc2c1,> 100 µM,
O=S(=O)(O)C(CO)c1ccccc1 (stereo unspecified) (tested in a mixture with another compound),> 100 µM,
C/C(CC(=O)Nc1ccc(C)c(C)c1)=N\N(c1ccccc1)c1ccccc1,> 100 µM,
COc1cnc2c(c1)C(=O)c1c-2n(CCCNC2=NCCS2)c(=O)c2cc([N+](=O)[O-])ccc12,2.14 µM,0.0427 µM
O=C1N=C2Sc3ccc4ccccc4c3N2C1=O,56.4 µM,
N#CC(C#N)=C1SC(=Nc2ccccc2)C(=Nc2ccccc2)N1c1ccccc1,> 100 µM,
O=C(O)CCNc1ncnc2nc[nH]c12,> 100 µM,
COC(=O)c1ccc2c(c1)C(=O)c1c-2n(CCCN=[N+]=[N-])c(=O)c2cc(OC)c(OC)cc12,> 100 µM,> 100 µM
COc1cc(N(CCC#N)CCC#N)ccc1/C(N=Nc1ccc(Cl)cc1)=N/NC(=O)c1cc(Br)ccc1O,> 150 µg/mL,97.8 µg/mL
COc1cc(Cl)cc(-c2nn(-c3cccc(NC(=O)c4ccc(N5CCOCC5)c(C(F)(F)F)c4)c3)cc2-c2ccncc2)c1,> 100 µM,73.7 µM
Cc1ccc(/C=N\NC2c3cc(Cl)ccc3Nc3nc(=O)[nH]c(C)c32)cc1 (stereo unspecified),> 100 µM,
O=[N+]([O-])C(=C(Nc1ccccc1)Nc1ccccc1)C(Cl)=C(Cl)Cl,44.2 µM,
O=C(O)[C@H]1CCCN1CP(=O)(O)CN1CCC[C@@H]1C(=O)O,> 100 µM,
O=[N+]([O-])C(=C(Nc1cccc2cccnc12)Nc1cccc2cccnc12)C(Cl)=C(Cl)Cl,> 100 µM,
Cc1c(N(C)C)ccc2c(=O)c3cccc(CC(=O)O)c3oc12,> 100 µM,
On1c(-c2ccccc2)c(-c2ccccc2N2CCCC2)c2ccccc21,> 100 µM,
S=c1[nH]c(=S)c2cc3ccccc3nc2[nH]1,> 100 µM,76.6 µM
O=C(/C=C/c1ccc[nH]1)c1ccc(-n2ccc(C(F)(F)F)n2)cc1,> 100 µM,> 100 µM
C[C@H](CCC(=O)O)[C@H]1CC[C@H]2[C@@H]3C(=O)C[C@@H]4C[C@H](O)CC[C@]4(C)[C@H]3C[C@H](O)[C@]12C,> 100 µM,

SMILES,TGI,GI50
CC1(C)[C@@H]2CC[C@@]1(C)CN(CCC[N+](C)(C)C)C2,> 100 µM,
COC1C(OC(=S)Nc2ccccc2)c2ccccc2N1C(C)=O (stereo unspecified),> 100 µM,
CCNC(=S)NNC(=O)C12CC3CC(CC(C3)C1)C2,> 100 µM,
O=C(O)CN1CCNCCN(CC(=O)O)CCN(CC(=O)O)CCNCC1,> 100 µM,
CCCCCCCCCCCCCCCC(=O)OCCOCCOCCOCc1ccccc1,> 100 µM,
CC1=Cc2cccc(C)c2C(=O)C1=O,56.1 µM,
COC(=O)/C=C\C(C#N)(C#N)N=Cc1ccc(C)cc1,34.9 µM,
Cc1c(/C=N\NC(=S)NCCNC(=S)N/N=C\c2c(C)n(C)n(-c3ccccc3)c2=O)c(=O)n(-c2ccccc2)n1C,> 100 µM,
CCOC(=O)N1CCC(N[C@@H]2c3cc4c(cc3C(c3cc(OC)c(O)c(OC)c3)C3C(=O)OC[C@@H]32)OCO4)CC1 (stereo partly specified),50 µM and > 25 µM,
CC(C)c1cc2c(c(O)c1O)[C@@]1(C(=O)O)CCCC(C)(C)[C@@H]1CC2,> 100 µM,
CSC1=N/C(=C\c2ccc(C)cc2)C(=O)N1CN1CCCCC1,> 100 µM,
CC1(C)COC(c2cccc3c2C(=O)c2cccc(Cl)c2-3)=N1,> 100 µM,
CN(C)CC[C@H](CSc1ccccc1)Nc1ccc(S(=O)(=O)NC(=O)c2ccc(N3CCN(Cc4ccccc4-c4ccc(Cl)cc4)CC3)cc2)cc1[N+](=O)[O-],> 28.5 µM,2.32 µM
CC(O)CNC(=O)C(C)Oc1ccc(OCC2CCCCC2)cc1 (stereo unspecified),> 100 µM,
COc1cc2c(cc1OC)C1C3CCCCC3CCN1CC2 (stereo unspecified),> 100 µM,
Nc1ncc(-c2ccc3ncnc(Nc4ccc(F)c(Cl)c4)c3c2)cn1,7.83 µM,0.237 µM
CCC(C)(C)c1ccc(OCCCCNC(=O)c2ccc3ccccc3c2O)c(C(C)(C)CC)c1,> 100 µM,
CC(C)SC(=S)Sc1c(Cl)c(Cl)nc(Cl)c1Cl,28.7 µM,
CCC[CH2][Sn]([CH2]CCC)([O]C(=O)c1ccc(OC)c(OC)c1OC)[O][Sn]([CH2]CCC)([CH2]CCC)[O]C(=O)c1ccc(OC)c(OC)c1OC,2.44 µM,1.2 µM
Cc1cc(N[C@@H]2CCC[C@H](Nc3ccnc4cc(Cl)ccc34)C2)nc(N2CCCCCC2)n1,5.72 µM,1.74 µM
O=C(Nc1ccc(Br)cc1F)c1cc(Cl)ccc1O,> 26.6 µM,0.418 µM
O=C(O)CN1CCN2CCCCCN(CC1)CCN(CC(=O)O)CC2,> 100 µM,
O=C(CC1C(=O)Nc2ccccc2S1=O)Nc1cc(Cl)ccc1Cl (stereo unspecified),> 100 µM,
C/C(N=NC(=S)N1CC2CCC(CC2)C1)=C1\C=CC=CN1O,97.5 µM,
C[N+](C)([O-])CCOc1cc2c(c3ccccc13)-c1ccccc1C2=O,66.1 µM,
CCn1c(O)c(/C=N/NC(=O)C(C)c2ccc(CC(C)C)cc2)sc1=S (stereo unspecified),> 47.5 µM,0.608 µM

SMILES,TGI,GI50
Nc1ccc(N=Nc2c(S(=O)(=O)O)cc3ccccc3c2S(=O)(=O)O)cc1,> 100 µM,
CC1=CCC([C@@](C)(O)CCCC(C)(C)N=C=S)CC1 (stereo partly specified),32.7 µM,
Cc1nn(-c2ccccc2)c2c1C(c1cc3ccccc3nc1Cl)NC(=O)N2 (stereo unspecified),> 100 µM,
O=C1CC2(CCC(O)(c3ccc4ccccc4c3)C(C(=O)c3ccc4ccccc4c3)C2)C(=O)c2ccccc2N1 (stereo unspecified),> 100 µM,
CN1C(=O)c2ccccc2NC(=O)C12O[C@@H]2c1ccccc1 (stereo partly specified),> 100 µM,
COC(=O)C1CCCC2(C1)OCCO2 (stereo unspecified),> 100 µM,
CC1(C)OC[C@@H](O)[C@H](C#N)CO1,> 100 µM,
O=C(Nc1cc(C(F)(F)F)cc(C(F)(F)F)c1)c1cc(Cl)ccc1O,> 3.05 µM and 10.8 µM,0.3 µM and 0.297 µM
CCN(CC)CCNc1nc(N)c(C#N)c(C#N)c1C#N,> 10 µM,
O=c1oc2ccc(-c3ccc(F)cc3F)cc2c(=O)n1-c1cccc(C(F)(F)F)c1,15.4 µM,1.46 µM
C[n+]1c(/C=C/c2c(O)ccc3ccccc23)ccc2ccccc21,12.6 µM,5.58 µM
CC(=NNC(=S)Nc1ccccc1)c1cccc(C(C)=NNC(=S)Nc2ccccc2)n1,> 31.1 µM,
CC(NCCC(c1ccccc1)c1ccccc1)c1ccccc1 (stereo unspecified),15.4 µM,3.43 µM
CC1(C)OC2C(CO[Si](C)(C)C(C)(C)C)OC(n3c(I)c(C#C[Si](C)(C)C)c(=O)[nH]c3=O)C2O1 (stereo unspecified),> 100 µM,> 100 µM
CN(C)C1CCN(C(=O)c2ccc(NC(=O)Nc3ccc(-c4nc(N5CCOCC5)c5cccn5n4)cc3)cc2)CC1,0.605 µM,0.0364 µM
CC(C)(/C=C(\C#N)C(=O)N1CCC[C@@H](n2nc(-c3ccc(Oc4ccccc4)cc3F)c3c(N)ncnc32)C1)N1CCN(C2COC2)CC1,22.9 µM,10.8 µM
O=C1OC(C2Cc3ccc4ccccc4c3C2=O)c2ccccc21 (stereo unspecified),98.2 µM,
NCCCN1c2ccccc2Sc2ccc(Cl)cc21,> 10 µM,
O=c1oc2cc(O)ccc2c(O)c1C(c1ccccc1)c1c(O)c2ccc(O)cc2oc1=O,> 100 µM,
COC1=CC(=O)c2c(c(-c3nc(C)cs3)cn2C)C1=O,44.8 µM,
COc1ccc(CCN(C)C2CCC(C#N)(c3ccc(OC)c(OC)c3)CC2)cc1OC (stereo unspecified),> 100 µM,
O=C(OC1CCC(=C2SCCCS2)[C@H]1C1SCCCS1)c1ccccc1 (stereo partly specified),> 100 µM,
Cc1nc(N)sc1N=Nc1ccccc1Br,80.5 µM,
